From PubChem BioAssay AID686979 (National Center for Advancing Translational Sciences (NCATS), 2013)
About 50,000 (12%) of roughly 420,000 compounds were called active. The inconclusive results got no clear call from the source; some entries with a clear call stand among them for comparison. The call rests on the fitted dose curve; in most records, active means well fitted inhibition curve with a large enough effect; inconclusive means small, poorly fitted or top-dose-only effect; inactive means flat fitted curve, though single readings scatter. Potencies of inconclusive entries are left out as doubtful fits.

test: qHTS for Inhibitors of human tyrosyl-DNA phosphodiesterase 1 (TDP1): qHTS in cells in presence of CPT; settings: chicken DT40 Tdp1-/-;hTDP1 cells + 20 nM CPT, ATP luminescence, 48 h; activity change, negative = growth inhibition: at 46.2 µM (top of the series); further: nearly all actives have a fitted effect of over 55% in size
Summary of the method: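 Chicken DT40 Tdp1-/- cells stably complemented with human TDP1 were seeded at 400 cells/well in medium containing 20 nM camptothecin, exposed to pin-transferred compounds, and grown at 37 °C for at least 48 hr. Viability was read as ATP luminescence.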
On the % scale 0 is the no-effect control and ±100 the full control effect; potency means the concentration at half of the fitted maximal effect; tags describe the fitted curve by direction and shape.

SMILES	Potency	activity change, negative = growth inhibition
Cc1ccc(N(C(=O)c2snc(C(N)=O)c2N)C(C(=O)NC2CCCC2)c2ccncc2)cc1 (stereo not given)	inconclusive [inhibitor, full curve]	–
O=C(CNc1cccc(S(=O)(=O)N2CCCC2)c1)Nc1cccc(Br)c1	inconclusive [inhibitor, single point]	–
O=C(CN1CCOCC1)Nc1ccc(Oc2ccccc2)cc1	inconclusive [inhibitor, single point]	–
CCOc1ccc(CCNC(=O)c2cnc3sc(N4CCCCCC4)nn3c2=O)cc1	active: 18.4 µM	–
COC(=O)Cn1c(=NC(=O)c2sc3ccccc3c2Cl)sc2cc(S(N)(=O)=O)ccc21	inconclusive [inhibitor, single point]	–
CCCn1c(=O)c(C(=O)NNC(=O)c2ccc(Cl)cc2Cl)c(O)c2ccccc21	inconclusive [inhibitor, single point]	–
Cc1cc(=O)n2nc(N3CCCC(C(=O)N4CCc5ccccc54)C3)sc2n1 (stereo not given)	inconclusive [inhibitor, single point]	–
O=C(Cn1ccc2ccccc2c1=O)NCC(=O)N1CCN(c2ccccc2F)CC1	–	inactive: 4.94%
COc1ccc(C2=NOC(C(=O)N3CCN(c4ccccc4OC)CC3)C2)cc1 (stereo not given)	active: 16.4 µM	–
Cc1nc(C(=O)Nc2cccc(Cl)c2)nn1-c1cc(OC(C)C)c(Cl)cc1Cl	active: 16.4 µM	–
O=C(Nc1ccccc1N1CCN(C(=O)c2ccc(Cl)cc2)CC1)c1cccc([N+](=O)[O-])c1	inconclusive [inhibitor, single point]	–
CC1=Nc2ccccc2N=C(NC(=O)CN2CCN(c3ccccc3)CC2)C1c1ccccc1 (stereo not given)	inconclusive [inhibitor, partial curve, poor fit]	–
O=C(Cc1csc(NC(=O)Nc2ccc(Cl)cc2)n1)NC1CCCC1	inconclusive [inhibitor, single point]	–
CN1CCN(S(=O)(=O)c2cnccc2N2CCN(c3cccc(Cl)c3)CC2)CC1	active: 18.4 µM	–
COc1cccc(-c2ncc3ccccc3c2COC(=O)c2ccc(C(C)(C)C)cc2)c1	inconclusive [inhibitor, single point]	–
CCn1cc(C(=O)O)c(=O)c2cc(F)c(N3CCN(C(=S)NC(=O)c4ccc(F)cc4)CC3)cc21	inconclusive [inhibitor, single point]	–
CCOC(=O)/C=C1\CN(Cc2ccc(OC)cc2)S(=O)(=O)c2ccccc21	inconclusive [inhibitor, partial curve]	–
OC(Cc1ccccc1)c1ncc(-c2ccc3ccccc3c2)[nH]1 (stereo not given)	inconclusive [inhibitor, single point]	–
O=C(NCC1CC1)c1cc(-c2ccccc2)nn1CC1CC(c2cccc([N+](=O)[O-])c2)=NO1 (stereo not given)	inconclusive [inhibitor, single point]	–
COc1ccc(NC(=O)c2nc[nH]c2C(=O)NCC(=O)OC(C)(C)C)cc1	inconclusive [inhibitor, single point]	–
Nc1ccc(C2(c3ccc(N)cc3)C(=O)Nc3ccccc32)cc1	–	inactive: 1.61%
COc1ccc(-c2csc(N(CC3CCCO3)C(=O)c3ccc(C)cc3)n2)cc1 (stereo not given)	active: 25.9 µM	–
CCOc1ccccc1NC(=O)c1ccc2c(O)c(S(=O)(=O)c3ccccc3)c(=O)[nH]c2c1	–	inactive: 1.22%
COc1ccc(OC)c(NC(=O)CN2CCCN(Cc3cc(C)ccc3C)S2(=O)=O)c1	inconclusive [inhibitor, single point]	–

SMILES	Potency	activity change, negative = growth inhibition
COc1ccc(C2C3=C(N=C4SCC(=O)N42)c2ccccc2CC3)cc1OC (stereo not given)	active: 14.6 µM	–
O=C(Nc1ccncc1)c1ccc2c(c1)S(=O)(=O)c1ccccc1C2=O	active: 14.6 µM	–
Cc1noc(C)c1C(=O)OC(C)C(=O)c1ccc(C(C)(C)C)cc1 (stereo not given)	–	inactive: -13.8%
COc1ccc(-c2nc(N)ncc2Oc2ccccc2Br)c(O)c1	–	inactive: -25.3%
COc1ccccc1CNC(=O)C(CC(C)C)N1Cc2ccccc2C1=O (stereo not given)	active: 9.2 µM	–
CCOC(=O)c1ccc(N2C(=O)c3n[nH]c(-c4ccco4)c3C2c2ccc(F)cc2)cc1 (stereo not given)	active: 23.1 µM	–
CCOC(=O)C1=C(C)OC(N)=C(C#N)C1c1ccoc1 (stereo not given)	inconclusive [inhibitor, single point]	–
CCn1c(CC(=O)Nc2ccc(C)cc2)nnc1SCC(=O)N1CCN(c2ccccc2)CC1	–	inactive: -23.2%
O=C(CSc1nccn1Cc1ccc(Cl)cc1)NCc1ccccc1	inconclusive [inhibitor, partial curve, poor fit]	–
Cc1cc(-c2ccccc2)nc(N(C)NC(=O)c2c(F)cccc2F)c1S(C)(=O)=O	inconclusive [inhibitor, single point]	–
CCOc1ccc(CCNc2nc3ccc(C)cc3n3cnnc23)cc1OCC	inconclusive [inhibitor, single point]	–
O=C(Cn1cnc2c(cnn2-c2ccc(F)cc2)c1=O)N1CCCc2ccccc21	–	inactive: -3.11%
CN(C)c1ccc(/C=N/n2c(COc3ccccc3)n[nH]c2=S)cc1	–	inactive: -19.6%
O=c1[nH]c(C2CCCN(S(=O)(=O)Cc3ccccc3)C2)nc2c1nnn2Cc1cccc(Cl)c1 (stereo not given)	–	inactive: -4.03%
c1cc(SSc2ccncc2)ccn1	inconclusive [inhibitor, single point]	–
Cc1ccc(N2C(=O)CC(Sc3ccccc3C(=O)O)C2=O)cc1C (stereo not given)	active: 4.11 µM	–
CC(C)N(C)CCOC(=O)/C=C/c1ccccc1	–	inactive: -21.3%
CN(C)C(CNC(=O)CCCN1C(=O)c2cccc3cccc(c23)C1=O)c1ccccc1 (stereo not given)	inconclusive [inhibitor, single point]	–
C=CCN(C(=O)CNC(=O)c1cccs1)C(C(=O)NC(C)(C)C)c1ccccc1 (stereo not given)	–	inactive: 0.933%
CCCC1=C(C(=O)OCC)C(c2cccnc2)n2nc(C)nc2N1 (stereo not given)	–	inactive: 7.62%
Cc1ccc(NC(=S)NNC(=S)NNc2ccccc2)cc1C	–	inactive: -5.71%
O=C(CN1CCOCC1)Nc1cccc(C(F)(F)F)c1	–	inactive: 3.34%
COc1ccccc1NC(=O)C(C/C=C(/C)Cl)C(C)=O (stereo not given)	inconclusive [inhibitor, single point]	–
O=C(N/N=C/c1cccc([N+](=O)[O-])c1)C1CC(=O)N(c2ccc(F)cc2)C1 (stereo not given)	–	inactive: -24.7%

SMILES	Potency	activity change, negative = growth inhibition
O=C(O)c1cc(-c2ccc3c(c2)OCO3)nc2ccccc12	inconclusive [inhibitor, partial curve, poor fit]	–
Cc1ccc(S(C)(=O)=O)cc1C(=O)Nc1cccc(S(=O)(=O)N2CCCCCC2)c1	inconclusive [inhibitor, partial curve]	–
CCOC(=O)c1cccc(NC(=O)N2CCC(CN3CCCCCC3)CC2)c1	inconclusive [inhibitor, single point]	–
CCOc1ccc(-c2csc(Cn3c(CN4CCN(C)CC4)nc4ccccc4c3=O)n2)cc1	active: 7.31 µM	–
CC(=O)Nc1cccc(NC(=O)CSc2cn(CC(=O)N3CCCCCC3)c3ccccc23)c1	active: 18.4 µM	–
Cc1c(Cl)c(C(=O)NC2C3CC4CC(C3)CC2C4)nn1C (stereo not given)	inconclusive [inhibitor, single point]	–
CNC(=O)C1CCC(Cn2c(=O)c3sccc3n(CC(=O)Nc3cc(F)ccc3F)c2=O)CC1 (stereo not given)	inconclusive [inhibitor, single point]	–
O=C(NCc1ccco1)c1ccc(Cn2c(=O)c3sccc3n(Cc3cccc(F)c3)c2=O)cc1	inconclusive [inhibitor, single point]	–
Cc1ccc(C(=O)CSc2nnc(CNc3ccc(C)cc3C)o2)cc1	inconclusive [inhibitor, partial curve, poor fit]	–
O=[N+]([O-])c1cc(-c2nc(-c3ccncc3)no2)ccc1NCc1ccccc1	–	inactive: -18.8%
O=C(O)c1cccc(N/N=C/c2cc(Br)cc(Br)c2O)c1	–	inactive: -0.955%
Cc1ccc(Nc2c(-c3ccc(N4CCOCC4)cc3)nc3cnccn23)cc1	inconclusive [inhibitor, partial curve, poor fit]	–
CCOC(=O)c1cc2c(ccn2C)n1CC(=O)N(Cc1ccccc1)c1ccccc1	active: 23.1 µM	–
C=CCN1C(=O)/C(=c2\sc3nc(=O)c(Cc4ccc(OC)c(OC)c4)nn3c2=O)c2ccccc21	inconclusive [inhibitor, partial curve, poor fit]	–
O=[N+]([O-])c1ccc(CSc2ccc(S(=O)(=O)N3CCCC3)cn2)cc1	inconclusive [inhibitor, single point]	–
Cc1oc(-c2ccccc2Cl)nc1Cn1cccc1C1=NC(c2ccccc2)CO1 (stereo not given)	inconclusive [inhibitor, single point]	–
CCOC(=O)N1CCC(Nc2c(NCCCN(CC)Cc3ccccc3)c(=O)c2=O)CC1	inactive	–
Cc1ccccc1Cn1cc(NC(=O)CSc2nc3c(c(C(F)(F)F)n2)CCc2ccccc2-3)cn1	inconclusive [inhibitor, single point]	–
Cc1ccc(CNS(=O)(=O)N(C)C)cc1	–	inactive: -5.68%
O=C(NC(=S)NCC1CCCO1)c1ccc([N+](=O)[O-])cc1 (stereo not given)	–	inactive: 5.8%
CC(C)CNS(=O)(=O)c1ccc(NC(=O)Cn2nc(-c3ccc(F)cc3)ccc2=O)cc1	inconclusive [inhibitor, single point]	–
COc1ccccc1CC(=O)Nc1cccc(C(=O)Nc2nccs2)c1	inconclusive [inhibitor, single point]	–
